Tm data for one protein are collected here from FireProtDB.

For this data set the following is noted: Salmonella phage P22; pH 7.5; Thermal; CD; Tris-HCl 50 mM; KCl 250 mM; whole UniProt chain shown.

Certain results were filed several times, with different values. The list is limited to them. The source may hold further records. The values listed for one entry are repeats across runs, samples, wells, individuals or studies. Records carry a tag for their origin. Letters count within one entry.

B1: Transcriptional repressor arc wild type, P03050 (protein)
chain: MKGMSKMPQFNLRWPREVLDLVRKVAEENGRSVNSEIYQRVMESFKKEGRIGA
Usually Tm stands for the temperature at the midpoint of the melting transition. As for B1, the Tm is 57.9 °C [study A] and 53.5 °C [study B].
